# This is one part of the list.
# B1: ASAL (Allium sativum), P83886 (protein)
# chain: MGRTTSSPKAMMRIATVAAILTILASTCMARNVLTNGEGLYAGQSLDVEQYKFIMQDDCNLVLYEYSTPIWASNTGVTGKNGCRAVMQRDGNFVVYDVNGRPVWASNSVRGNGNYILVLQKDRNVVIYGSDIWSTGTYRRSVGGAVVMAMNGTVDGGSVIGPVVVNQNVTAAIRKVGTGAA
# Key:
# Assay in all cases: glycan array binding signal (z-score within array); higher = stronger binding
# Conditions in all cases: glycan notation: IUPAC condensed, linker removed
# [1] = target: Fuc(a1-2)Gal(b1-4)[Fuc(a1-3)]GlcNAc(b1-2)[Fuc(a1-2)Gal(b1-4)[Fuc(a1-3)]GlcNAc(b1-4)]Man(a1-3)[Fuc(a1-2)Gal(b1-4)[Fuc(a1-3)]GlcNAc(b1-2)Man(a1-6)]Man(b1-4)GlcNAc(b1-4)GlcNAc
# Method in brief: (§1)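 Glycan array data were curated from 3228 arrays in the Consortium for Functional Glycomics database and kept only where the protein sequence was available. Glycan names were converted to IUPAC-condensed notation, and columns mapping to the same glycan were averaged. The binding signal is a within-array Z-score, averaged across arrays of the same protein sequence at different concentrations or buffers and across linkers. Negative Z-scores can be read as non-binding.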
# [2] = target: Fuc(a1-2)Gal(b1-4)[Fuc(a1-3)]GlcNAc(b1-3)Gal(b1-4)[Fuc(a1-3)]GlcNAc
# Method in brief: as §1
# [3] = target: Fuc(a1-2)Gal(b1-4)[Fuc(a1-3)]GlcNAc(b1-3)Gal(b1-4)[Fuc(a1-3)]GlcNAc(b1-3)Gal(b1-4)[Fuc(a1-3)]GlcNAc
# Method in brief: as §1
# [4] = target: Fuc(a1-2)Gal(b1-4)[Fuc(a1-3)]GlcNAc(b1-3)GalNAc
# Method in brief: as §1
# [5] = target: Fuc(a1-2)Gal6S(b1-4)Glc
# Method in brief: as §1
# [6] = target: Fuc(a1-2)Gal6S(b1-4)Glc6S
# Method in brief: as §1
# [7] = target: Fuc(a1-2)Gal6S(b1-4)GlcNAc
# Method in brief: as §1
# [8] = target: Fuc(a1-2)[Gal(a1-3)]Gal
# Method in brief: as §1
# [9] = target: Fuc(a1-2)[Gal(a1-3)]Gal(b1-3)GlcNAc
# Method in brief: as §1
# [10] = target: Fuc(a1-2)[Gal(a1-3)]Gal(b1-3)GlcNAc(b1-2)Man(a1-3)[Fuc(a1-2)[Gal(a1-3)]Gal(b1-3)GlcNAc(b1-2)Man(a1-6)]Man(b1-4)GlcNAc(b1-4)GlcNAc
# Method in brief: as §1
# [11] = target: Fuc(a1-2)[Gal(a1-3)]Gal(b1-3)GlcNAc(b1-3)GalNAc
# Method in brief: as §1
# [12] = target: Fuc(a1-2)[Gal(a1-3)]Gal(b1-4)Glc
# Method in brief: as §1
# [13] = target: Fuc(a1-2)[Gal(a1-3)]Gal(b1-4)GlcNAc
# Method in brief: as §1
# [14] = target: Fuc(a1-2)[Gal(a1-3)]Gal(b1-4)GlcNAc(b1-2)Man(a1-3)[Fuc(a1-2)[Gal(a1-3)]Gal(b1-4)GlcNAc(b1-2)Man(a1-6)]Man(b1-4)GlcNAc(b1-4)GlcNAc
# Method in brief: as §1
# [15] = target: Fuc(a1-2)[Gal(a1-3)]Gal(b1-4)GlcNAc(b1-2)Man(a1-3)[Fuc(a1-2)[Gal(a1-3)]Gal(b1-4)GlcNAc(b1-2)Man(a1-6)]Man(b1-4)GlcNAc(b1-4)[Fuc(a1-6)]GlcNAc
# Method in brief: as §1
# [16] = target: Fuc(a1-2)[Gal(a1-3)]Gal(b1-4)GlcNAc(b1-3)GalNAc
# Method in brief: as §1
# [17] = target: Fuc(a1-2)[Gal(a1-3)]Gal(b1-4)[Fuc(a1-3)]Glc
# Method in brief: as §1
# [18] = target: Fuc(a1-2)[Gal(a1-3)]Gal(b1-4)[Fuc(a1-3)]GlcNAc
# Method in brief: as §1
# [19] = target: Fuc(a1-2)[Gal(a1-3)]Gal(b1-4)[Fuc(a1-3)]GlcNAc(b1-3)GalNAc
# Method in brief: as §1
# [20] = target: Fuc(a1-2)[Gal(a1-4)]Gal(b1-4)GlcNAc
# Method in brief: as §1
# [21] = target: Fuc(a1-2)[GalNAc(a1-3)]Gal
# Method in brief: as §1
# [22] = target: Fuc(a1-2)[GalNAc(a1-3)]Gal(b1-3)GalNAc(a1-3)[Fuc(a1-2)]Gal(b1-4)GlcNAc
# Method in brief: as §1
# [23] = target: Fuc(a1-2)[GalNAc(a1-3)]Gal(b1-3)GlcNAc
# Method in brief: as §1
# [24] = target: Fuc(a1-2)[GalNAc(a1-3)]Gal(b1-3)GlcNAc(b1-2)Man(a1-3)[Fuc(a1-2)[GalNAc(a1-3)]Gal(b1-3)GlcNAc(b1-2)Man(a1-6)]Man(b1-4)GlcNAc(b1-4)GlcNAc
# Method in brief: as §1
# [25] = target: Fuc(a1-2)[GalNAc(a1-3)]Gal(b1-3)GlcNAc(b1-3)GalNAc
# Method in brief: as §1
# [26] = target: Fuc(a1-2)[GalNAc(a1-3)]Gal(b1-4)Glc
# Method in brief: as §1
# [27] = target: Fuc(a1-2)[GalNAc(a1-3)]Gal(b1-4)GlcNAc
# Method in brief: as §1
# [28] = target: Fuc(a1-2)[GalNAc(a1-3)]Gal(b1-4)GlcNAc(b1-2)Man(a1-3)[Fuc(a1-2)[GalNAc(a1-3)]Gal(b1-4)GlcNAc(b1-2)Man(a1-6)]Man(b1-4)GlcNAc(b1-4)GlcNAc
# Method in brief: as §1
# [29] = target: Fuc(a1-2)[GalNAc(a1-3)]Gal(b1-4)GlcNAc(b1-3)Gal(b1-4)GlcNAc
# Method in brief: as §1
# [30] = target: Fuc(a1-2)[GalNAc(a1-3)]Gal(b1-4)GlcNAc(b1-3)Gal(b1-4)GlcNAc(b1-3)Gal(b1-4)GlcNAc
# Method in brief: as §1
# [31] = target: Fuc(a1-2)[GalNAc(a1-3)]Gal(b1-4)GlcNAc(b1-3)GalNAc
# Method in brief: as §1
# [32] = target: Fuc(a1-2)[GalNAc(a1-3)]Gal(b1-4)[Fuc(a1-3)]GlcNAc
# Method in brief: as §1
# [33] = target: Fuc(a1-2)[GalNAc(a1-3)]Gal(b1-4)[Fuc(a1-3)]GlcNAc(b1-3)GalNAc
# Method in brief: as §1
# [34] = target: Fuc(a1-2)[GalNAc(a1-4)]Gal(b1-4)GlcNAc
# Method in brief: as §1
# [35] = target: Fuc(a1-2)[GalNAc(b1-3)]Gal
# Method in brief: as §1
# [36] = target: Fuc(a1-3)GlcNAc
# Method in brief: as §1
# [37] = target: Fuc(a1-3)[Gal(b1-4)]Glc6S
# Method in brief: as §1
# [38] = target: Fuc(a1-3)[Gal(b1-4)]GlcNAc
# Method in brief: as §1
# [39] = target: Fuc(a1-3)[Gal(b1-4)]GlcNAc(b1-2)Man(a1-3)[Fuc(a1-3)[Gal(b1-4)]GlcNAc(b1-2)Man(a1-6)]Man(b1-4)GlcNAc(b1-4)GlcNAc
# Method in brief: as §1
# [40] = target: Fuc(a1-3)[Gal(b1-4)]GlcNAc(b1-2)Man(a1-3)[Fuc(a1-3)[Gal(b1-4)]GlcNAc(b1-2)Man(a1-6)]Man(b1-4)GlcNAc(b1-4)[Fuc(a1-6)]GlcNAc
# Method in brief: as §1
# [41] = target: Fuc(a1-3)[Gal(b1-4)]GlcNAc(b1-3)Gal(b1-3)[Fuc(a1-4)]GlcNAc
# Method in brief: as §1
# [42] = target: Fuc(a1-3)[Gal(b1-4)]GlcNAc(b1-3)GalNAc
# Method in brief: as §1
# [43] = target: Fuc(a1-3)[Gal(b1-4)]GlcNAc(b1-4)Gal(b1-4)[Fuc(a1-3)]GlcNAc
# Method in brief: as §1
# [44] = target: Fuc(a1-3)[Gal(b1-4)]GlcNAc(b1-4)Gal(b1-4)[Fuc(a1-3)]GlcNAc(b1-4)Gal(b1-4)[Fuc(a1-3)]GlcNAc
# Method in brief: as §1
# [45] = target: Fuc(a1-3)[Gal(b1-4)]GlcNAc(b1-6)[Gal(b1-3)GlcNAc(b1-3)]Gal(b1-4)Glc
# Method in brief: as §1
binder,measurement,setting,value
B1,glycan array binding signal (z-score),[1],-0.25
same,glycan array binding signal (z-score),[2],-0.24
same,glycan array binding signal (z-score),[3],-0.277
same,glycan array binding signal (z-score),[4],-0.166
same,glycan array binding signal (z-score),[5],-0.234
same,glycan array binding signal (z-score),[6],-0.175
same,glycan array binding signal (z-score),[7],-0.247
same,glycan array binding signal (z-score),[8],-0.272
same,glycan array binding signal (z-score),[9],-0.287
same,glycan array binding signal (z-score),[10],-0.202
same,glycan array binding signal (z-score),[11],-0.274
same,glycan array binding signal (z-score),[12],-0.229
same,glycan array binding signal (z-score),[13],-0.269
same,glycan array binding signal (z-score),[14],-0.216
same,glycan array binding signal (z-score),[15],-0.029
same,glycan array binding signal (z-score),[16],-0.201
same,glycan array binding signal (z-score),[17],-0.26
same,glycan array binding signal (z-score),[18],-0.194
same,glycan array binding signal (z-score),[19],-0.257
same,glycan array binding signal (z-score),[20],-0.251
same,glycan array binding signal (z-score),[21],-0.238
same,glycan array binding signal (z-score),[22],-0.266
same,glycan array binding signal (z-score),[23],-0.298
same,glycan array binding signal (z-score),[24],-0.277
same,glycan array binding signal (z-score),[25],-0.186
same,glycan array binding signal (z-score),[26],-0.235
same,glycan array binding signal (z-score),[27],-0.27
same,glycan array binding signal (z-score),[28],-0.283
same,glycan array binding signal (z-score),[29],-0.203
same,glycan array binding signal (z-score),[30],-0.194
same,glycan array binding signal (z-score),[31],-0.268
same,glycan array binding signal (z-score),[32],-0.214
same,glycan array binding signal (z-score),[33],-0.213
same,glycan array binding signal (z-score),[34],-0.122
same,glycan array binding signal (z-score),[35],-0.217
same,glycan array binding signal (z-score),[36],-0.238
same,glycan array binding signal (z-score),[37],-0.246
same,glycan array binding signal (z-score),[38],-0.289
same,glycan array binding signal (z-score),[39],-0.228
same,glycan array binding signal (z-score),[40],-0.196
same,glycan array binding signal (z-score),[41],-0.24
same,glycan array binding signal (z-score),[42],-0.26
same,glycan array binding signal (z-score),[43],-0.19
same,glycan array binding signal (z-score),[44],-0.284
same,glycan array binding signal (z-score),[45],-0.329

# Reference: the supplement of paper PMC8728848
